Measurements from article PMC4336329 (PLoS ONE, 2015).
Hit rate of the full screen: of about 310,000 compounds, about 14,000 (4.5%) showed an effect of 50% or more. Effects have a minus sign here. This is one part of the list.

Molecular target: human ether-à-go-go-related gene (hERG) potassium channel (human, UniProt Q12809)
Experiment: primary screen, population patch clamp on CHO cells stably expressing hERG
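Also: peak tail current of the secondary pulse compared with the same well before compound.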

Chain of human ether-à-go-go-related gene (hERG) potassium channel (Q12809 whole entry, looked up): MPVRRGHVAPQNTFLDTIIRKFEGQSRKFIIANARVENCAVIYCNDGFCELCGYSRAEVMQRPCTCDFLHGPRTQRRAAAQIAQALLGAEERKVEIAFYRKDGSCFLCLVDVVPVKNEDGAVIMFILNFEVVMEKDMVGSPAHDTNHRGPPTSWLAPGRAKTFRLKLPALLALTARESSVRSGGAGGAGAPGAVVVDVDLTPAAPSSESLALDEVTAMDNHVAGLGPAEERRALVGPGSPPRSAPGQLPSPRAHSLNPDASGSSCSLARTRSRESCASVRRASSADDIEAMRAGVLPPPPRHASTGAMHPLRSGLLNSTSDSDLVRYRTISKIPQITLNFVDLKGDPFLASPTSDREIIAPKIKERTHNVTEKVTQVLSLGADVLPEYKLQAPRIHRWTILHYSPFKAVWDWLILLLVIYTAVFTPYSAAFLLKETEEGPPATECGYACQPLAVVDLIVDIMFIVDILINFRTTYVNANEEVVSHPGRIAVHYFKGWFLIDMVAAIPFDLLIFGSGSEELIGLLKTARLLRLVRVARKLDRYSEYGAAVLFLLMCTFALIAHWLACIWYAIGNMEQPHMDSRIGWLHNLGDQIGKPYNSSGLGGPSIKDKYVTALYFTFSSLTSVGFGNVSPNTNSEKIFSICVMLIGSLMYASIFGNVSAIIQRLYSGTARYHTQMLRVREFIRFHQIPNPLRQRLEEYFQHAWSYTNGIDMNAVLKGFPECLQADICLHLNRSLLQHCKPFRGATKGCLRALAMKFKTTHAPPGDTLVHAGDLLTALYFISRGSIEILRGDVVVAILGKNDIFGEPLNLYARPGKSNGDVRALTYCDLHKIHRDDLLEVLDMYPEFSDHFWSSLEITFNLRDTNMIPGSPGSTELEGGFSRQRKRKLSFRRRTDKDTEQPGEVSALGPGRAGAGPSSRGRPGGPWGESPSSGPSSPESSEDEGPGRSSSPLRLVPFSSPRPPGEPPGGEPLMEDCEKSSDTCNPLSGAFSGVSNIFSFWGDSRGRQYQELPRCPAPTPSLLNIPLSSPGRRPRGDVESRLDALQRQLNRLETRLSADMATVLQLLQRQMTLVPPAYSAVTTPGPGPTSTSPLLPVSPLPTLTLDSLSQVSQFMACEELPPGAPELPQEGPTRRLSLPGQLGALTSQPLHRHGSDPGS

SMILES	hERG current change (%, negative = inhibition) at 10uM
COC(=O)[C@@H](NC(=O)NC1CCN(Cc2ccccc2)CC1)C(C)C	15.2%
CCCCNC(=O)Nc1ccc(Br)cn1	-16.2%
Cl.O=S(=O)(NCCCN1CCOCC1)c1ccc(F)c(Cl)c1	-3.74%
O=C(CN(c1ccccc1)S(=O)(=O)c1ccccc1)N1CCN(Cc2ccc3c(c2)OCO3)CC1	-33.4%
COc1cccc(C(=O)Nc2ccc(S(=O)(=O)NCc3ccco3)cc2)c1	-28.4%
O=S1(=O)N=C2CCCCCN2C(c2ccc(Cl)cc2)N1 (stereo not drawn)	-3.14%
CN1CCN(C(=S)Nc2cc(S(=O)(=O)N3CCOCC3)ccc2Cl)CC1	7.53%
CC(C)n1c2ccccc2c2cc([N+](=O)[O-])ccc21	16.1%
CCOC(=O)c1ccc(NC(=O)c2ccc3c(c2)OCO3)cc1	9.64%
Cc1cc(C)c(S(=O)(=O)N2CCN(C(=O)c3c(C)noc3C)CC2)c(C)c1	-5.93%
CCN(CC)S(=O)(=O)c1ccc(Cl)c(NC(=O)CSc2cccc[n+]2[O-])c1	-13.4%
COC(=O)Cc1ccc(NC(=O)c2ccc(C(C)(C)C)cc2)cc1	-23.9%
COc1ccc(NC(=O)N2CCCC2C(=O)NCc2ccc(C)cc2)cc1 (stereo not drawn)	6.43%
O=C(Nc1nc2c(s1)CCCC2)c1ccc(N2C(=O)CCC2=O)cc1	3.59%
CC(C)C(=O)Nc1c(-c2ccccc2F)c(=O)c2ccccc2n1C	14.2%
Cc1ccc(NC(=O)c2ccc(NCc3ccc(F)cc3)nc2)cc1	14.9%
O=C(NC1(C(F)(F)F)NC(=O)N(C2CCCCC2)C1=O)c1ccco1 (stereo not drawn)	3.36%
COc1ccc(Nc2ccc(Cl)cc2)c(C(=O)O)c1	-7.35%
COc1cccc(C2C(C(=O)c3cc4ccccc4o3)=C(O)C(=O)N2c2cc(C)on2)c1OC (stereo not drawn)	18.5%
O=c1c2cc(Cl)ccc2[nH]c(=S)n1Cc1ccco1	-6.86%
COc1cc(NS(=O)(=O)c2ccc(F)cc2)c(C(=O)O)cc1OC	15.8%
O=c1[nH]c(=O)n(Cc2ccco2)c2c1C(C(F)(F)F)(C(F)(F)F)N=C(c1ccco1)N2	7.54%
CC(C)[C@H](NC(=O)OC(C)(C)C)c1nnc(SCC(=O)Nc2ccc(Br)cc2)o1	-33%
Clc1cccc(-c2nc(NCc3cccnc3)c3ccccc3n2)c1	0.604%
Cc1ccc2nc(Cn3cc(C(F)(F)F)cc(Cl)c3=O)cc(=O)n2c1	-24.5%
COC(=O)c1ccccc1NC(=O)CCNC(=O)Cn1cnc2ccccc2c1=O	2.64%
O=C1/C(=C\c2c(NCCOCCO)nc3ccccn3c2=O)SC(=S)N1Cc1ccco1	-0.759%

SMILES	hERG current change (%, negative = inhibition) at 10uM
CCC1=C/C(=C/c2sc3ccccc3[n+]2CC)CC(C)(C)C1.[I-]	11.5%
COC(=O)C1=C(C)N(CCCC(=O)O)C(=O)NC1c1ccc(-c2ccccc2)cc1 (stereo not drawn)	0.876%
O=C(O)[C@H](Cc1ccccc1)Nc1ccc([N+](=O)[O-])cn1	14.4%
C/C(Cl)=C\CNC(C)c1ccccc1.Cl (stereo not drawn)	5.76%
O=C(NC(=S)Nc1cc(C(F)(F)F)ccc1N1CCOCC1)c1ccco1	3.6%
CCCn1c(=O)c(C(=O)OCC)c(O)c2cc(Br)ccc21	19.8%
O=C(/C=C/c1ccccc1)CC(O)(c1ccccc1)C(F)(F)F (stereo not drawn)	-13.7%
Cc1cccc(OCC(=O)N(Cc2cccs2)C2CCS(=O)(=O)C2)c1C (stereo not drawn)	-27.1%
COc1ccc(/C=C/C(=O)OCC(=O)NC2CCCC2)cc1	-2.45%
COCCNC(=O)c1cc(-c2ccccc2)nn1CC1CC(c2cccc([N+](=O)[O-])c2)=NO1 (stereo not drawn)	-50.6%
Cc1ccc(S(=O)(=O)N2CCCCC2)cc1C(=O)N1CCN(CCO)CC1	3.41%
COc1ccc(-n2nc(C(=O)NCC(=O)Nc3cc(OC)c(OC)c(OC)c3)c3ccccc3c2=O)cc1Cl	10%
CC(C)c1cc(NC(=O)CSc2nnc(-c3ccccc3F)n2C)on1	-2.61%
CN=C(Nc1ccc(C(=O)OC)s1)c1ccc(Cl)cc1	-5.47%
Cc1cccn2cc(-c3ccc(S(=O)(=O)N4CCOCC4)cc3)nc12	-13.8%
O=C(NC1=NCCS1)c1cccc(N2C(=O)c3ccccc3C2=O)c1	22.2%
CCN(CCn1cccn1)C(=O)CC1C(=O)NCCN1Cc1cccc(OC)c1OC (stereo not drawn)	-2.93%
CCCCNC(=O)c1ccc(N2CCOCC2)c(NS(=O)(=O)c2ccc(OC)cc2)c1	-40.4%
COc1ccc(/C(C)=N/NC(=S)Nc2cc(C)ccc2C)cc1	-41%
COc1cc(N)c(C(=O)c2nccc3cc(OC)c(OC)cc23)cc1OC	12.2%
CCOC(=O)C(O)(CC(=O)Nc1cc(F)ccc1C)C(F)(F)F (stereo not drawn)	15.1%
O=[N+]([O-])c1ccc(S(=O)(=O)Nc2cccc(-c3ccc(N4CCOCC4)nn3)c2)cc1	-20.3%
Cc1ccccc1-c1cc(C(=O)NCc2ccc3c(c2)OCO3)n(CC2CC(c3cccnc3)=NO2)n1 (stereo not drawn)	-20.8%
CCc1nn(CC(=O)N(C)C2CCCCC2)c(=O)c2cc3cc(C)ccc3n12	11.7%
Cc1ccc(S(=O)(=O)N2CCC(C(=O)Nc3nnc(-c4ccco4)s3)CC2)cc1	18.9%
COc1ccc2nc(N)sc2c1	7.47%
O=C(NCCc1ccccn1)c1cccnc1Oc1ccc(Cl)cc1	-3.49%
